Source: PubChem BioAssay AID1963576 (National Center for Advancing Translational Sciences (NCATS), 2024)
Hit rate of the full screen: of about 46,000 compounds, about 60 (0.1%) were called active. Another 3% or so got no clear call; they are omitted. Calls come from the whole dose curve; as a rule, active = well fitted inhibition curve with a large enough effect; inconclusive = small, poorly fitted or top-dose-only effect; inactive = no such curve, though single readings can be large or run the other way. Some of the results follow.

Experiment: Primary qHTS assay for Inhibitors of ovarian cancer metastasis using an organotypic tumor microenvironment (TME) model.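 For activity change, negative = inhibition: plate controls were DMSO wells for no effect and tomatine positive control wells for full effect.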 Note: nearly all actives have a fitted effect of over 65% in size.
Conditions: SKOV3ip1-GFP adhesion/invasion on 3D omental model, fluorescence; series mostly up to 45.8 µM; activity change, negative = inhibition: at the top concentration
How it was run: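 Adhesion/invasion was scored as fixed GFP-labeled SKOV3ip1 cell counts (488/509 nm), normalized to DMSO and tomatine controls. Cancer cells in serum-free medium, with four compound doses (0.36-46 umol/L), sat 2 hr at RT then 16 hr at 37 C on a 48 hr fibroblast/mesothelial/ECM culture.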

Activity change, negative = inhibition, inactive:
O=C1C(=O)N(C2CCN(S(=O)(=O)c3ccc(F)cc3)CC2)CCN1Cc1ccccc1 3.4%
CCN(C(=O)c1oc2ccc(S(=O)(=O)N3CCCCCC3)cc2c1C)c1ccccc1 -32.1%
CCOC(=O)c1cccc(NC(=O)CN2C(=O)CC(C)(C)Sc3ccccc32)c1 -28.9%
Cc1ccc(Nc2c(-c3ccc(N4CCOCC4)cc3)nc3ncccn23)cc1 20.6%
CCOC(=O)c1cc(S(=O)(=O)N2CCN(c3ccc(OC)cc3)CC2)[nH]n1 -2.85%
CCCCn1c2ccc(F)cc2c2nnc(SCCN(CC)CC)nc21 -15.9%
COc1ccc(CC(=O)NCc2nc3cccnc3n2Cc2ccc(F)cc2)cc1OC 12.4%
CCOc1cc2[nH]c(=O)n(Cc3ccc(C(=O)NCCN(CC)CC)cc3)c(=O)c2cc1OCC -1%
Cc1ccc(C)c(N2CCN(C(=O)c3ccc(CS(=O)(=O)c4ccc(Br)cc4)o3)CC2)c1 3.03%
CCCN(C(=O)CCc1nc(-c2ccccc2F)no1)c1ccc(CC)cc1 -2.47%
COc1ccc(NC(=O)c2cc3c(=O)[nH]c4ccccc4c3n2C)cc1Cl -14.7%
CN(CC(=O)Nc1cccc(C(F)(F)F)c1)S(=O)(=O)c1ccc2[nH]c3c(c2c1)CCCC3 -6.93%
COc1cccc(NC(=O)CSc2nc3ccccc3nc2N2CCOCC2)c1 -1.94%
FC(F)c1nc2ccccc2n1-c1nc(N2CCOCC2)nc(N2CCOCC2)n1 9.32%
CCc1ccccc1NC(=O)CSc1nnc(-c2cc(OC)c(OC)c(OC)c2)o1 2.31%
CC(=O)Nc1cc(C(=O)NCc2ccccc2)ccc1Sc1ccc(C)cc1 4.96%
Cc1ccc(N2CC(c3nnc(Cc4ccc(Cl)cc4)o3)CC2=O)cc1 (stereo unspecified) -10.8%
CNS(=O)(=O)c1cn(CC(=O)Nc2ccc(F)cc2F)cc1S(=O)(=O)NC -1.25%
CCCCNc1sc(S(=O)(=O)CC)nc1S(=O)(=O)c1ccc(C)cc1 1.33%
CN(C(=O)CSc1cn(CC(=O)N2CCCCCC2)c2ccccc12)c1ccccc1 4%
O=C(NC1CCCCC1)c1ccc(Cn2c(SCc3cccc(F)c3)nc3cccnc32)cc1 -16.1%
CCN(c1ccc(OC)cc1)S(=O)(=O)c1c(C(=O)N2CCCCCC2)c(C)n(C)c1C -1.33%
CO[C@H]1C[C@@H]2CC[C@@H](C)[C@@](O)(O2)C(=O)C(=O)N2CCCC[C@@H]2C(=O)O[C@H]([C@H](C)C[C@@H]2CC[C@H](OC(=O)C(C)(CO)CO)[C@H](OC)C2)CC(=O)[C@H](C)C=C(C)[C@@H](O)[C@@H](OC)C(=O)[C@H](C)C[C@H](C)C=CC=CC=C1C 0.0515%
Cc1cccc(C(=O)Nc2ccc(-c3nc4ccccc4s3)c(C)c2)c1 -9.2%
CCOc1ccc(OCC)c(NC(=O)c2cc(C)nc3c2c(C)nn3-c2cccc(Cl)c2C)c1 -8.95%
Cc1ccc(CC(=O)N(Cc2nc(-c3ccc(C)cc3)no2)C(C)C)cc1 25.2%
Cc1ccc(C)c(N2CCN(C(=O)c3cccc(-n4c(C)nc5cccnc54)c3)CC2)c1 -1.93%
O=C(CCc1nc(-c2ccccc2F)no1)Nc1cccc(C(F)(F)F)c1 4.8%
CCc1ccc(NC(=O)CSC2=Nc3ccccc3C3=NC(CCC(=O)NCc4ccccc4OC)C(=O)N23)cc1 (stereo unspecified) 18.9%
CCOCCCNC(=O)c1cnc2sc(N3CCCCCC3)nn2c1=O -1.03%
O=C(COc1ccc(Cl)cc1)Nc1cc(-c2ccccc2)no1 4.28%
C[C@@H]1C[C@H]2[C@@H]3CCC4=CC(=O)C=C[C@]4(C)[C@@]3(F)[C@@H](O)C[C@]2(C)[C@@]1(O)C(=O)CO 13.1%
COc1ccc(OC)c(NC(=O)CN2C(=O)CC(c3ccco3)Sc3ccccc32)c1 (stereo unspecified) -26.1%
COc1ccc2c(c1)c1c(c(=O)n(-c3ccccc3C)c(=O)n1Cc1ccccc1C)n2C -16.1%
COCCCNc1ncnc2c1c(-c1ccccc1)cn2-c1ccc(C)c(Cl)c1 7.41%
CCn1c(CN2CCN(c3cccc(Cl)c3)CC2)nc2c1c(=O)[nH]c(=O)n2C -5.85%
Cn1c(=O)c2sccc2n2c(CCCC(=O)Nc3ccc(F)cc3F)nnc12 6.74%
CCCCN(CC)C(=O)Cn1c(=O)n(-c2ccc(OCC)cc2)c(=O)c2c3c(sc21)CCC3 0.387%
O=C(c1ccc2c(c1)OCO2)c1cn(Cc2ccc(F)cc2)c2ccccc2c1=O -2.22%
CCCCOc1ccc(CNC(=O)Cn2ncn3c(cc4cc(F)ccc43)c2=O)cc1 -6.57%
Cn1nc(C(=O)N2CCN(c3ccccc3)CC2)c2c1-c1ccccc1SC2 -8.35%
COc1ccc(CNC(=O)c2cc3ccccn3n2)c(OC)c1 -14.9%
COc1cc(OC)c(C2C=C(C(=O)O)Nc3ncnn32)cc1OC (stereo unspecified) -24.7%
Cc1ccc(C2CCN(C(=O)c3cnn(-c4ccccc4Cl)c3C3CCN(C(=O)OC(C)(C)C)CC3)C2)cc1 (stereo unspecified) -19.7%
CCCOC(=O)c1c(NC(=O)c2nc3ncccn3n2)sc(C(=O)OCC)c1C 2.77%
COc1ccccc1CNC(=O)c1cn(C)c2ccc(S(=O)(=O)N3CCC(C)CC3)cc2c1=O -6.24%
NC(=NCCCCCCN=C(N)N=C(N)Nc1ccc(Cl)cc1)N=C(N)Nc1ccc(Cl)cc1 -9.36%
Cc1ccc(NC(=O)C2CCCN(S(=O)(=O)c3cccc4cccnc34)C2)cc1Cl (stereo unspecified) -1.39%
Cc1ccc(C(=O)Nc2cccc(C(=O)OCc3cc(=O)n4c5c(sc4n3)CCCC5)c2)cc1 -57.6%
O=C(CN1Cc2ccccc2C1=O)Nc1cc(F)ccc1F -0.211%
Cc1cccc(N(C)C(=O)C(Cc2ccccc2)NS(=O)(=O)c2cccc3nsnc23)c1 (stereo unspecified) -4.71%
COc1ccc(N2CCN(S(=O)(=O)c3c(C)nc4scc(C)n4c3=O)CC2)cc1 -7.82%
Cc1ccc(C)c(NC(=O)N2CC=C(c3c[nH]c4ccccc34)CC2)c1 -1.93%
CC(=O)c1ccc(NC(=O)C2CCN(S(=O)(=O)c3ccc4c(c3)CCCN4C(=O)C3CCC3)CC2)cc1 8.65%
CCOc1ccc(-n2c(SCC(=O)Nc3ccccc3OC)nc3c(oc4ccccc43)c2=O)cc1 2.82%
COc1ccccc1OCC(=O)N(Cc1ccc(N(C)C)cc1)CC1CCCO1 (stereo unspecified) 10.1%
COc1ccc(Nc2ccc3cc(S(=O)(=O)N4CCCC4)ccc3n2)cc1Cl 2.44%
CCc1ccccc1NC(=O)CN(Cc1ccccc1)S(=O)(=O)c1ccc2nc(C)sc2c1 9.05%
CCOC(=O)c1c(NC(=O)CCCOc2ccc(C(C)(C)C)cc2)sc2c1CCC2 -0.627%
COc1ccc(N2CCN(C(=O)Cc3c(C(=O)O)c(C)cn3C)CC2)cc1 -14.2%
O=C(Cn1c(-c2cccs2)cc2cc(Cl)ccc21)NCc1ccccc1 5.79%
CCCSc1nc(=O)c2c(n1C)NC(=O)CC2c1cccc(F)c1F (stereo unspecified) 0.684%
CCC(=O)N1CCc2cc(Br)cc(S(=O)(=O)NCCc3ccccc3Cl)c21 4.62%
CC(C)Oc1ccc(C(=O)N[C@H](CNC(=O)CN(C)C)Cc2ccc(-c3cn4cccc([C@H](C)O)c4n3)cc2)cc1Cl -12.8%
COc1ccc(C)cc1NS(=O)(=O)c1ccc2c(c1)[C@H]1C=CC[C@H]1[C@@H](c1cccc(Cl)c1)N2 -10.8%
Cc1cc(C)cc(NC(=O)CSCn2nnc3c(=O)[nH]c(Cc4ccc(F)cc4)nc32)c1 -1.14%
COc1ccccc1CCNC(=O)CCn1c(=O)c2cccn2c2ccc(F)cc21 -3.86%
CCOc1cc(C(=O)Nc2ccc3oc(-c4ccc(CC)cc4)nc3c2)cc(OCC)c1OCC -12.5%

outcome, inactive:
COc1ccc(CCNC(=O)CCCn2c(=O)c3ccccc3n(Cc3ccccc3C)c2=O)cc1OC
Cc1cccc(C)c1OCc1nc2c3cnn(-c4cccc(F)c4)c3ncn2n1
Cc1ccc(CNC(=O)c2c3c(nc4ccccc24)C(=O)N(C2CCCCC2)C3)cc1
Cc1ccccc1NC(=O)c1sc2nc3c(cc2c1N)CCCC3
Cc1csc2nc(COC(=O)c3ccccc3NC(=O)c3ccc(F)cc3)cc(=O)n12
CCc1ccc(CN2C(=O)c3ccccc3C2C(=O)NCCc2ccc(OC)c(OC)c2)cc1 (stereo unspecified)
Cc1cccc(N2CCN(C(=O)Cn3c(=O)c4cccn4c4ccc(F)cc43)CC2C)c1 (stereo unspecified)
COc1ccc(N2CCN(CC(O)COc3ccccc3C(C)(C)C)CC2)cc1 (stereo unspecified)
Cc1ccc(CNC(=O)C(C(C)C)N2Cc3ccccc3C2=O)cc1 (stereo unspecified)
Cc1nn(-c2ccccc2)c(OC(=O)c2ccc(Br)cc2)c1S(=O)(=O)c1ccccc1
CCOc1ccc(NC(=O)Cn2c(=O)n(CCc3ccccc3)c(=O)c3c4c(sc32)CN(C(C)=O)CC4)cc1
Cc1cc2nn(-c3ccc(Cl)cc3)nc2cc1NC(=O)C(C)C
CC(=O)c1cccc(-n2c(=O)c3c4c(sc3n(Cc3ccccc3Cl)c2=O)CN(C(C)=O)CC4)c1
Cc1c(F)cccc1NC(=O)C1CCCN1S(=O)(=O)c1ccc(F)cc1 (stereo unspecified)
COc1cc(OC)c(NC(=O)c2ccc3nc(C(C)C)oc3c2)cc1Cl
Cc1cc(C)c(NC(=O)CSc2nc(C)cc(C)c2C#N)c(C)c1
Cc1ccc2oc(=O)c3cnn(CC(=O)N(C)c4ccc(F)cc4)c3c2c1
COc1ccc(-n2nc3ccc(NC(=O)COc4ccc(C)c(C)c4)cc3n2)cc1
Cc1ccc(-c2c(C(=O)N3CCN(c4cccc(C)c4C)CC3)oc(=O)c3ccccc23)cc1
CCc1cc(C(=O)Nc2cnn(Cc3ccc(F)cc3)c2)no1
Cc1cccc(NC(=O)Cn2cc(S(=O)(=O)c3ccc(F)cc3)c(=O)c3cc4c(cc32)OCO4)c1
COc1ccc(OC)c(CCNC(=O)c2cc3c(-c4ccccc4F)nn(C)c3s2)c1
COc1ccc(CCNC(=O)CCc2c(C)nc3cc(-c4ccccc4)nn3c2C)cc1OC
